Test results from PubChem BioAssay AID1240 (Sanford-Burnham Center for Chemical Genomics, 2008).
Among all 50,000 compounds or so, about 800 (1.6%) showed an effect of 50% or more. This is one part of the list.

Molecular target: Bcl-2-like protein 10 (Homo sapiens) (UniProt Q9HD36)
Test: TR3 peptide-Bcl-B binding displacers, biochemical primary FP assay, phenotype converters (AID 1240);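 also: 0% = Bcl-B with tracer peptide and DMSO and 100% = tracer peptide lacking Bcl-B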
Conditions: GST-Bcl-B / FITC-TR3 peptide fluorescence polarization; stronger effect = higher value; compound at 3.75 mg/L

Chain of UniProt Q9HD36 (Q9HD36 whole entry, looked up): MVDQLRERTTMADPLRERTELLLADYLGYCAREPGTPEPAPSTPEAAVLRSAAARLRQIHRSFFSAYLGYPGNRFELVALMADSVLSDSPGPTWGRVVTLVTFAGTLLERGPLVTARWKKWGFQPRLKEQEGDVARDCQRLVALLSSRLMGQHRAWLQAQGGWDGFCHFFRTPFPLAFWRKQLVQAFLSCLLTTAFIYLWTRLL

Structure (SMILES) | displacement [%]
CCOCCOC(=O)c1ccc(NC(=O)c2ccc(OC)c(OC)c2)cc1 | -5.1
COc1cc(NC(=O)c2ccc(Cl)cc2)c(Cl)cc1N | -1.7
CS(=O)(=O)N(Cc1ccc(C(=O)NCCSc2ccccc2)cc1)c1ccccc1 | -9.3
CCOC(=O)C1CCN(C(=O)Nc2cccc(Cl)c2)CC1 | 13.5
COc1ccc(NC(=O)c2cc(-c3ccc(OC)cc3OC)nc3ccccc23)c(OC)c1 | -0.8
COc1ccc(Cl)cc1NC(=O)/C=C/c1cccc([N+](=O)[O-])c1 | 15.4
CCCC1CCc2c(sc(NC(=O)Cc3ccccc3)c2C(N)=O)C1 (centres undefined) | 6.9
COc1ccc(OC)c(S(=O)(=O)N2CCCCCC2)c1 | -2.6
CCCc1cc(=O)n2[nH]c(-c3ccc(F)cc3)cc2n1 | 8.1
CC1=Nc2ccccc2/C1=C\c1c(O)n(-c2ccccc2)c(=O)[nH]c1=O | -3.1
CCOC(=O)c1c(NC(=O)COc2ccccc2C)sc(C(=O)Nc2ccc(C)cc2C)c1C | 10
COc1cccc(CN2CCN(S(=O)(=O)c3ccc(C)cc3)CC2)c1 | 1.5
COC(=O)c1cc(Cl)c(NC(=O)COc2cc(C)ccc2C(C)C)cc1OC | 2.3
COc1cc(/C=C2/SC(=S)N(CC(=O)O)C2=O)cc([N+](=O)[O-])c1O | -11.3
CCOC(=O)c1cc(=O)c2c(F)c(F)c(F)c(F)c2o1 | -4.1
CN(CP(=O)(O)C(O)c1ccccc1)S(C)(=O)=O (centres undefined) | 7.3
CC(=O)C1(C)CC(C#N)(C#N)C(C#N)=C1N (centres undefined) | 1.1
Cc1ccc(NC(=O)c2sc(N)c(C(=O)OC(C)C)c2C)cc1 | 7.1
CC1=NN(c2ccc(Cl)cc2)C(=O)C1 | -11.1
CCCOc1ccc2ccc(=O)oc2c1 | 13.4
CCC(C)NC(=O)CN(c1ccc(C)c(Cl)c1)S(C)(=O)=O (centres undefined) | 19.2
CC1=NN(c2ccccc2)C(=O)/C1=C\c1ccccc1Cl | -14.1
CCOc1cc(OCC)cc(C(=O)Nc2ccc(F)c([N+](=O)[O-])c2)c1 | 1.2

Structure (SMILES) | displacement [%]
CC(=O)OCc1ccc(-c2ccc([N+](=O)[O-])cc2)o1 | 13.1
CCOc1ccc(C(=O)COC(=O)c2cccc(I)c2)cc1 | 9.4
Cc1ccc(S(=O)(=O)NC(=O)C(C)O)cc1 (centres undefined) | 11.3
COc1ccc(C(=O)CCNc2ccccc2)cc1 | 5.6
NC(=S)N/N=C/c1c[nH]c2ccccc12 | 14.4
CCOC(=O)C1CCN(S(=O)(=O)c2ccc(F)cc2)CC1 | -8
O=C1NC2=Nc3ccccc3NC(c3ccccc3)=C2C(c2ccc(N3CCOCC3)cc2)N1 (centres undefined) | 10.9
CC1=NN(c2ccc(S(N)(=O)=O)cc2)C(=O)/C1=C\c1ccc(-c2ccc(Cl)c(C(=O)O)c2)o1 | 2.3
CN(C)c1ccc(NC(=O)C2CC(=O)N(c3ccc(F)cc3)C2)cc1 (centres undefined) | 3.3
Cc1ccccc1C(=O)N=Nc1c(O)n(CN(C)C)c2ccc(Br)cc12 | -7.2
COc1cc(CN2CCN(C3CCCCCC3)CC2)cc(OC)c1O | -0.4
COc1ccc(S(=O)(=O)Nc2ccc3ccccc3c2)cc1 | 9.7
CC(=O)C1C(=O)c2c(cccc2[N+](=O)[O-])C1=Nc1ccc(N=Cc2cc(Br)ccc2O)cc1 (centres undefined) | 5.3
COC(=O)c1cc(C(=O)N2CCN(c3ccccc3)CC2)cc([N+](=O)[O-])c1 | 5.2
Cc1ccccc1OCCSc1nc2ccc(Br)cc2[nH]1 | 12.3
CC(O)c1c(OCc2ccccc2)ncnc1OCc1ccccc1 (centres undefined) | 17.4
O=C(NCc1ccc(Cl)cc1)c1ccc(I)cc1 | 9.9
COc1ccccc1NC(=O)CC1CCCCC1 | 18.5
CCc1ncc(C(O)c2ccccc2)n1C (centres undefined) | 9.8
COc1ccc(Cc2nnc(NC(=O)Nc3ccccc3)s2)cc1 | 11.9
CC(=O)c1cccc(NC(=O)CC2S/C(=N\N=C\c3ccccc3)NC2=O)c1 (centres undefined) | 20.7
CC(C)CC(NC(=O)/C(=C\c1ccc(Cl)cc1)NC(=O)c1ccco1)C(=O)OCc1ccccc1 (centres undefined) | -8.5
COc1ccc(C(=O)Nc2ccccc2C(=O)NC(C(=O)Nc2cccc(C)c2)C(C)C)cc1 (centres undefined) | 8.7

Structure (SMILES) | displacement [%]
Cc1ccc(-n2nc3cc(C)c(NC(=O)c4ccc5c(c4)OCCO5)cc3n2)cc1 | 0.4
Cc1ccc2c(c1)C(c1ccccc1Br)CC(=O)N2 (centres undefined) | 8.6
O=[N+]([O-])c1cc(-n2ncnc2-c2cccc(Br)c2)ccc1Cl | -5.8
CCOC(=O)COc1ccc(/C=N\n2cnnc2)cc1OC | 14.5
CCOc1cc(/C=C2/C(=O)NC(=O)N(c3ccc(C)cc3)C2=O)ccc1OC | -0.2
COC(=O)c1ccc(C(=O)OC)c(NC(=O)COc2cccc(Cl)c2)c1 | 1.2
O=C(O)/C(=C\c1cccc([N+](=O)[O-])c1)NC(=O)c1ccccc1 | 12.4
CCOC(=O)C1=C(C(=O)OCC)SC(=C2C(=S)C(C)(C)N(C(=O)CC)c3ccc(OCC)cc32)S1 | -0.4
O=C(COc1ccc2ccccc2c1)Nc1ccc(NC(=O)c2ccco2)c(Cl)c1 | -1.7
O=C1CC(N2CCC(O)CC2)C(=O)N1c1ccc(Cl)cc1 (centres undefined) | -4.9
COc1ccc(CC(=O)Nc2ccccc2F)cc1OC | 2.3
O=c1[nH]c2ccccc2n1CCCN1CCN(C(c2ccccc2)c2ccccc2)CC1 | 13.1
O=C(Nc1ccccc1-c1ccccc1)c1ccc(N2C(=O)c3ccc([N+](=O)[O-])cc3C2=O)cc1 | 5.3
O=C1NN(c2cccc(Cl)c2)C(=O)/C1=C\c1ccc(O)cc1 | 12.1
CC(C)(C)c1ccc2c(c1[N+](=O)[O-])C(=O)c1ccccc1C2=O | 3.5
O=C(Nc1ccc2c(c1)C(=O)N(c1ccccc1)C2=O)c1ccco1 | -1.1
CCOC(=O)c1c(C)n(CC(O)c2ccc([N+](=O)[O-])cc2)c2c1cc(O)c1ccccc12 (centres undefined) | 6.8
Cc1ccc(-c2cc(C(=O)N3CCC(Cc4ccccc4)CC3)c3ccccc3n2)o1 | -8.3
CCOc1ccc(C(=O)Nc2ccc(O)c(-c3nc4ccccc4o3)c2)cc1[N+](=O)[O-] | 11
O=C(CC1Sc2ccccc2NC1=O)Nc1ccc(N2CCOCC2)cc1 (centres undefined) | -6.6
O=C(COc1ccccc1)Nc1ccc2nn(-c3ccc(Cl)cc3)nc2c1 | 6.3
CCOC(=O)c1cc(CC)sc1NC(N)=O | 9.5
COc1cc(/C=C2/SC(=S)N(c3ccccc3)C2=O)ccc1Oc1nc(N2CCOCC2)nc(N2CCOCC2)n1 | 46.7
